# Test results as given in the supplement of paper PMC8728848.
# The other results are listed elsewhere or left out.
# What was measured:
# Test in all cases: glycan array binding signal (z-score within array); higher = stronger binding
# Details in all cases: glycan notation: IUPAC condensed, linker removed
# [1] = biological target: Fuc(a1-2)Gal
# How it was run: (§1)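 Arrays were curated from the Consortium for Functional Glycomics database, 3228 in total, and kept only where the protein sequence was available. Binding is expressed as a within-array Z-score. This score was averaged across arrays of the same protein sequence at different concentrations or buffers and across linkers, and negative values can be read as non-binding.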
# [2] = biological target: Fuc(a1-2)Gal(b1-3)GalNAc
# How it was run: as §1
# [3] = biological target: Fuc(a1-2)Gal(b1-3)GalNAc(a1-3)[Fuc(a1-2)]Gal(b1-4)Glc
# How it was run: as §1
# [4] = biological target: Fuc(a1-2)Gal(b1-3)GalNAc(a1-3)[Fuc(a1-2)]Gal(b1-4)GlcNAc
# How it was run: as §1
# [5] = biological target: Fuc(a1-2)Gal(b1-3)GalNAc(b1-3)Gal
# How it was run: as §1
# [6] = biological target: Fuc(a1-2)Gal(b1-3)GalNAc(b1-3)Gal(a1-4)Gal(b1-4)Glc
# How it was run: as §1
# [7] = biological target: Fuc(a1-2)Gal(b1-3)GalNAc(b1-3)Gal(b1-4)Glc
# How it was run: as §1
# [8] = biological target: Fuc(a1-2)Gal(b1-3)GalNAc(b1-4)[Neu5Ac(a2-3)]Gal(b1-4)Glc
# How it was run: as §1
# [9] = biological target: Fuc(a1-2)Gal(b1-3)GlcNAc
# How it was run: as §1
# [10] = biological target: Fuc(a1-2)Gal(b1-3)GlcNAc(b1-2)Man(a1-3)[Fuc(a1-2)Gal(b1-3)GlcNAc(b1-2)Man(a1-6)]Man(b1-4)GlcNAc(b1-4)GlcNAc
# How it was run: as §1
# [11] = biological target: Fuc(a1-2)Gal(b1-3)GlcNAc(b1-2)Man(a1-3)[Fuc(a1-2)Gal(b1-3)GlcNAc(b1-2)Man(a1-6)]Man(b1-4)GlcNAc(b1-4)[Fuc(a1-6)]GlcNAc
# How it was run: as §1
# [12] = biological target: Fuc(a1-2)Gal(b1-3)GlcNAc(b1-3)Gal(b1-4)Glc
# How it was run: as §1
# [13] = biological target: Fuc(a1-2)Gal(b1-3)GlcNAc(b1-3)GalNAc
# How it was run: as §1
# [14] = biological target: Fuc(a1-2)Gal(b1-3)GlcNAc(b1-3)[Fuc(a1-2)Gal(b1-3)GlcNAc(b1-6)]GalNAc
# How it was run: as §1
# [15] = biological target: Fuc(a1-2)Gal(b1-3)GlcNAc(b1-3)[Gal(b1-4)GlcNAc(b1-6)]Gal(b1-4)Glc
# How it was run: as §1
# [16] = biological target: Fuc(a1-2)Gal(b1-3)GlcNAc(b1-3)[Neu5Ac(a2-6)Gal(b1-4)GlcNAc(b1-6)]Gal(b1-4)Glc
# How it was run: as §1
# [17] = biological target: Fuc(a1-2)Gal(b1-3)GlcNAc6S
# How it was run: as §1
# [18] = biological target: Fuc(a1-2)Gal(b1-3)[Fuc(a1-4)]GlcNAc
# How it was run: as §1
# [19] = biological target: Fuc(a1-2)Gal(b1-3)[Fuc(a1-4)]GlcNAc(b1-2)Man(a1-3)[Fuc(a1-2)Gal(b1-3)[Fuc(a1-4)]GlcNAc(b1-2)Man(a1-3)]Man(b1-4)GlcNAc(b1-4)GlcNAc
# How it was run: as §1
# [20] = biological target: Fuc(a1-2)Gal(b1-3)[Fuc(a1-4)]GlcNAc(b1-2)Man(a1-3)[Fuc(a1-2)Gal(b1-3)[Fuc(a1-4)]GlcNAc(b1-2)Man(a1-6)]Man(b1-4)GlcNAc(b1-4)[Fuc(a1-6)]GlcNAc(b1-4)[Fuc(a1-6)]GlcNAc
# How it was run: as §1
# [21] = biological target: Fuc(a1-2)Gal(b1-3)[Fuc(a1-4)]GlcNAc(b1-3)[Fuc(a1-3)[Gal(b1-4)]GlcNAc(b1-6)]Gal(b1-4)Glc
# How it was run: as §1
# [22] = biological target: Fuc(a1-2)Gal(b1-3)[Fuc(a1-4)]GlcNAc(b1-3)[Gal(b1-4)GlcNAc(b1-6)]Gal(b1-4)Glc
# How it was run: as §1
# [23] = biological target: Fuc(a1-2)Gal(b1-4)Fuc(a1-3)]GlcNAc(b1-2)Man(a1-3)[Fuc(a1-2)Gal(b1-4)[Fuc(a1-3)]GlcNAc(b1-2)Man(a1-6)]Man(b1-4)GlcNAc(b1-4)GlcNAc
# How it was run: as §1
# [24] = biological target: Fuc(a1-2)Gal(b1-4)Glc
# How it was run: as §1
# [25] = biological target: Fuc(a1-2)Gal(b1-4)Glc6S
# How it was run: as §1
# [26] = biological target: Fuc(a1-2)Gal(b1-4)GlcNAc
# How it was run: as §1
# [27] = biological target: Fuc(a1-2)Gal(b1-4)GlcNAc(b1-2)Man
# How it was run: as §1
# [28] = biological target: Fuc(a1-2)Gal(b1-4)GlcNAc(b1-2)Man(a1-3)[Fuc(a1-2)Gal(b1-4)GlcNAc(b1-2)Man(a1-6)]Man(b1-4)GlcNAc(b1-4)GlcNAc
# How it was run: as §1
# [29] = biological target: Fuc(a1-2)Gal(b1-4)GlcNAc(b1-2)Man(a1-3)[Fuc(a1-2)Gal(b1-4)GlcNAc(b1-2)Man(a1-6)]Man(b1-4)GlcNAc(b1-4)[Fuc(a1-6)]GlcNAc
# How it was run: as §1
# [30] = biological target: Fuc(a1-2)Gal(b1-4)GlcNAc(b1-2)[Fuc(a1-2)Gal(b1-4)GlcNAc(b1-4)]Man(a1-3)[Fuc(a1-2)Gal(b1-4)GlcNAc(b1-2)Man(a1-6)]Man(b1-4)GlcNAc(b1-4)GlcNAc
# How it was run: as §1
# [31] = biological target: Fuc(a1-2)Gal(b1-4)GlcNAc(b1-3)Gal(b1-4)GlcNAc
# How it was run: as §1
# [32] = biological target: Fuc(a1-2)Gal(b1-4)GlcNAc(b1-3)Gal(b1-4)GlcNAc(b1-2)Man(a1-3)[Fuc(a1-2)Gal(b1-4)GlcNAc(b1-3)Gal(b1-4)GlcNAc(b1-2)Man(a1-6)]Man(b1-4)GlcNAc(b1-4)GlcNAc
# How it was run: as §1
# [33] = biological target: Fuc(a1-2)Gal(b1-4)GlcNAc(b1-3)Gal(b1-4)GlcNAc(b1-3)Gal(b1-4)GlcNAc
# How it was run: as §1
# [34] = biological target: Fuc(a1-2)Gal(b1-4)GlcNAc(b1-3)GalNAc
# How it was run: as §1
# [35] = biological target: Fuc(a1-2)Gal(b1-4)GlcNAc(b1-3)[Fuc(a1-2)Gal(b1-4)GlcNAc(b1-6)]GalNAc
# How it was run: as §1
# [36] = biological target: Fuc(a1-2)Gal(b1-4)GlcNAc(b1-3)[Fuc(a1-3)[Gal(b1-4)]GlcNAc(b1-6)]Gal(b1-4)Glc
# How it was run: as §1
# [37] = biological target: Fuc(a1-2)Gal(b1-4)GlcNAc(b1-6)GalNAc
# How it was run: as §1
# [38] = biological target: Fuc(a1-2)Gal(b1-4)GlcNAc6S
# How it was run: as §1
# [39] = biological target: Fuc(a1-2)Gal(b1-4)[Fuc(a1-3)]GalNAc(b1-3)Gal(b1-4)[Fuc(a1-3)]GlcNAc
# How it was run: as §1
# [40] = biological target: Fuc(a1-2)Gal(b1-4)[Fuc(a1-3)]GalNAc(b1-3)Gal(b1-4)[Fuc(a1-3)]GlcNAc(b1-3)Gal(b1-4)[Fuc(a1-3)]GalNAc
# How it was run: as §1
# [41] = biological target: Fuc(a1-2)Gal(b1-4)[Fuc(a1-3)]GlcNAc
# How it was run: as §1
# [42] = biological target: Fuc(a1-2)Gal(b1-4)[Fuc(a1-3)]GlcNAc(b1-2)Man(a1-3)[Fuc(a1-2)Gal(b1-4)[Fuc(a1-3)]GlcNAc(b1-2)Man(a1-6)]Man(b1-4)GlcNAc(b1-4)[Fuc(a1-6)]GlcNAc
# How it was run: as §1
# [43] = biological target: Fuc(a1-2)Gal(b1-4)[Fuc(a1-3)]GlcNAc(b1-2)[Fuc(a1-2)Gal(b1-4)[Fuc(a1-3)]GlcNAc(b1-4)]Man(a1-3)[Fuc(a1-2)Gal(b1-4)[Fuc(a1-3)]GlcNAc(b1-2)Man(a1-6)]Man(b1-4)GlcNAc(b1-4)GlcNAc
# How it was run: as §1
# [44] = biological target: Fuc(a1-2)Gal(b1-4)[Fuc(a1-3)]GlcNAc(b1-3)Gal(b1-4)[Fuc(a1-3)]GlcNAc
# How it was run: as §1
# [45] = biological target: Fuc(a1-2)Gal(b1-4)[Fuc(a1-3)]GlcNAc(b1-3)Gal(b1-4)[Fuc(a1-3)]GlcNAc(b1-3)Gal(b1-4)[Fuc(a1-3)]GlcNAc
# How it was run: as §1
binder,measurement,setting,value
"OVGAL11 (Ovis aries), AAF64320 (protein) MDSLPNPYLQSVSLTVCYMVKIKANLLSAFGKNPELQVDFGTGTGQGGNIPFRFWYCDGMVVMNTFTDGSWQKEEKVLTDAFVPGQPFELQFLVLEKEYQVFVKNKPICQFAHRLPLQSVKMLDVRGDIVLTSVDTL",glycan array binding signal (z-score),[1],-0.071
same,glycan array binding signal (z-score),[2],-0.148
same,glycan array binding signal (z-score),[3],-0.061
same,glycan array binding signal (z-score),[4],-0.112
same,glycan array binding signal (z-score),[5],1.72
same,glycan array binding signal (z-score),[6],-0.119
same,glycan array binding signal (z-score),[7],-0.15
same,glycan array binding signal (z-score),[8],6.31
same,glycan array binding signal (z-score),[9],-0.096
same,glycan array binding signal (z-score),[10],-0.019
same,glycan array binding signal (z-score),[11],-0.051
same,glycan array binding signal (z-score),[12],-0.116
same,glycan array binding signal (z-score),[13],-0.109
same,glycan array binding signal (z-score),[14],-0.093
same,glycan array binding signal (z-score),[15],-0.07
same,glycan array binding signal (z-score),[16],-0.113
same,glycan array binding signal (z-score),[17],-0.083
same,glycan array binding signal (z-score),[18],-0.196
same,glycan array binding signal (z-score),[19],-0.071
same,glycan array binding signal (z-score),[20],-0.046
same,glycan array binding signal (z-score),[21],-0.121
same,glycan array binding signal (z-score),[22],-0.098
same,glycan array binding signal (z-score),[23],-0.036
same,glycan array binding signal (z-score),[24],-0.057
same,glycan array binding signal (z-score),[25],-0.11
same,glycan array binding signal (z-score),[26],-0.31
same,glycan array binding signal (z-score),[27],-0.102
same,glycan array binding signal (z-score),[28],0.022
same,glycan array binding signal (z-score),[29],-0.071
same,glycan array binding signal (z-score),[30],-0.059
same,glycan array binding signal (z-score),[31],-0.156
same,glycan array binding signal (z-score),[32],-0.036
same,glycan array binding signal (z-score),[33],-0.078
same,glycan array binding signal (z-score),[34],-0.092
same,glycan array binding signal (z-score),[35],-0.053
same,glycan array binding signal (z-score),[36],-0.109
same,glycan array binding signal (z-score),[37],-0.097
same,glycan array binding signal (z-score),[38],-0.111
same,glycan array binding signal (z-score),[39],-0.09
same,glycan array binding signal (z-score),[40],-0.189
same,glycan array binding signal (z-score),[41],-0.12
same,glycan array binding signal (z-score),[42],-0.087
same,glycan array binding signal (z-score),[43],-0.091
same,glycan array binding signal (z-score),[44],0.149
same,glycan array binding signal (z-score),[45],0.184
